Laboratory results as given in PubChem BioAssay AID360 (National Center for Advancing Translational Sciences (NCATS), 2006).
Hit rate of the full screen: of about 48,000 compounds, about 550 (1.1%) were called active. Another 4% or so got no clear call; they are omitted. Rule as the data show it: active = potency below about 15 µM; inconclusive = mostly about 16 µM to 33 µM; inactive = weaker than that. Some of the results follow.

molecular target: Lysosomal acid glucosylceramidase (Homo sapiens) (UniProt P04062); assay: Glucocerebrosidase; conditions: purified enzyme, resorufin glucoside fluorescence (screen aimed at inhibitors), 20 min; series mostly up to 77 µM;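 also: the screen sought inhibitors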
In short: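 Normal human glucocerebrosidase (0.2 nM final) was assayed with resorufin β-D-glucopyranoside (30 uM final) in 50mM citric acid/KH2PO4, 10mM sodium taurocholate, 0.01% tween-20, pH 5.9. Compounds were titrated; fluorescence (Ex 548, Em 600) read after 20 min at RT.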
Potency is read from the fitted curve at half-maximal effect.

Chain of UniProt P04062 (P04062 whole entry, looked up): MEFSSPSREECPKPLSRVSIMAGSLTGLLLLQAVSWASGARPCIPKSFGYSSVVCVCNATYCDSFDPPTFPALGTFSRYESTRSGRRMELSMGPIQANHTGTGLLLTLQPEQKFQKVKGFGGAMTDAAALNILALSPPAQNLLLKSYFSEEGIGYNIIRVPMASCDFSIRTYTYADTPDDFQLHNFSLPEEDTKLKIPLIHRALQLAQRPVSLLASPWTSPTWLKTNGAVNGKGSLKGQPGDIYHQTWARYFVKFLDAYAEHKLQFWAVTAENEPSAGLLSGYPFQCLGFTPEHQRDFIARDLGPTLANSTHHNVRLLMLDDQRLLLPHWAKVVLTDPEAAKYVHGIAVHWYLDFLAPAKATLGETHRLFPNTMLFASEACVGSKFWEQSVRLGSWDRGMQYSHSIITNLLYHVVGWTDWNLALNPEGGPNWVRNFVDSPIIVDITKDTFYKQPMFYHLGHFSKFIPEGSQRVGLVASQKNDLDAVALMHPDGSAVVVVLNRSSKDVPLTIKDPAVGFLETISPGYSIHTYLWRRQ

Potency, inactive:
O=C(NCc1nc2ccccc2[nH]1)c1ccc(Cl)c(S(=O)(=O)N2CCCC2)c1 > 76.9 µM
COc1cccc(-c2nnc(NC(=O)c3ccc(S(=O)(=O)N4CC(C)OC(C)C4)cc3)o2)c1 (configuration not stated) > 76.9 µM
Cc1ccc(N2C(=O)c3n[nH]c(C)c3C2c2ccco2)cc1 (configuration not stated) > 76.9 µM
Cc1cccc(-c2noc(CCC(=O)Nc3ccccc3)n2)c1 > 76.9 µM
CNS(=O)(=O)c1cc(OCC(N)=O)c(C)cc1Cl > 76.9 µM
CCC1(C)COC2(OC1)C(=O)Nc1ccccc12 (configuration not stated) > 76.9 µM
CC(=O)Nc1ccc(OC(=O)c2cccnc2)cc1 > 76.9 µM
COCCNC(=O)Cn1c(=O)n(Cc2ccc(C(=O)NCc3ccco3)cc2)c(=O)c2ccccc21 > 76.9 µM
Clc1ccccc1OCc1nn2c(-c3ccncc3)nnc2s1 > 76.9 µM
CCOc1ccc(NS(=O)(=O)c2ccc3[nH]cc(C(=O)NC(C)CC)c(=O)c3c2)cc1 (configuration not stated)
CS(=O)(=O)N1CCN(C(=O)c2cccnc2)CC1 > 76.9 µM
O=C(NC1(C(=O)NC2CCCCC2)CCCCC1)c1ccc2c(c1)OCO2 > 76.9 µM
O=S(=O)(c1ccc2nc(Cc3cccc(C(F)(F)F)c3)[nH]c2c1)N1CCOCC1 > 76.9 µM
COCCCNC(=O)CN(Cc1ccc(Cl)cc1)S(C)(=O)=O > 76.9 µM
CC1CC(=O)Nc2ccccc2S1(=O)=O (configuration not stated) > 76.9 µM
CC(OC(=O)CCCN1C(=O)c2ccccc2C1=O)C(=O)Nc1ncc(Cl)cc1Cl (configuration not stated) > 76.9 µM
CCOC(=O)c1ccc(COC(=O)c2nonc2N)cc1 > 76.9 µM
O=C(O)C1=C(C(=O)Nc2ccc(F)c(Cl)c2)CCCC1 > 76.9 µM
CCCOC(=O)NC(CC)COC(=O)Nc1cccc(C)c1C (configuration not stated) > 76.9 µM
CCCC12CN3CC(C)(CN(C1)C31CCCCC1)C2=O > 76.9 µM
CCN(CC)CC(C)CNC(=O)CC(C(=O)N1CCc2ccccc21)n1ccnc1 (configuration not stated) > 76.9 µM
Cc1cc2c(C)cc(=O)oc2c2c1NCCC2 > 76.9 µM
CCOc1cc(C)c(Cl)cc1S(=O)(=O)NCc1ccc2c(c1)OCO2 > 76.9 µM
COc1ccc(N2CC(C(=O)NCc3ccccc3)CC2=O)cc1 (configuration not stated) > 76.9 µM
CCCC1Cc2nc(N3CCCCC3)c(C#N)cc2CO1 (configuration not stated) > 76.9 µM
C=C(C)c1cccc(C(C)(C)NC(=O)NCCCN2CCCC2=O)c1 > 76.9 µM
CC1CN(C(=O)N[C@@H](Cc2ccccc2)C(=O)O)CC(C)O1 (some centres not stated) > 76.9 µM
COC(=O)c1ccc(Cl)c(NC(=O)CSc2ncn[nH]2)c1 > 76.9 µM
O=C(NCCN1CCCC1)c1ccc2c(=O)n(CCc3ccccc3)c(=O)[nH]c2c1 > 76.9 µM
CCC(C)Sc1nc2c(c(=O)[nH]c(=O)n2C)n1CC(O)COc1cccc2ccccc12 (configuration not stated) > 76.9 µM
CCCN(CCC)c1nc(NC2CCN(C(=O)OCC)CC2)nc(OC)n1 > 76.9 µM
Cc1cc2cc(CN(Cc3ccc4c(c3)OCO4)C(=O)c3ccco3)c(=O)[nH]c2cc1C > 76.9 µM
COc1ccc(NC(=O)CSc2nnc(CNc3ccc(F)cc3)o2)c(OC)c1 > 76.9 µM
COCCNS(=O)(=O)c1cc(F)ccc1OC > 76.9 µM
O=C1C2C3C=CC(O3)C2C(=O)N1CC(O)c1ccccc1 (configuration not stated) > 76.9 µM
CCOC(=O)c1sc2nc(N3CCOCC3)c3c(c2c1N)CCCC3 > 76.9 µM
CC1=C(C(=O)Nc2ccccc2C)C(c2cccnc2)n2nc(CCCO)nc2N1 (configuration not stated) > 76.9 µM
O=C(CSc1nnc(-c2ccccc2Br)o1)Nc1cccc2ccccc12 > 76.9 µM
Clc1ccccc1-c1nnc2sc(-c3ccccn3)nn12 > 76.9 µM
CC(=O)c1sc(NC(=O)c2ccc(Cn3cc(Br)cn3)o2)nc1C > 76.9 µM
COc1ccc(C)cc1-n1nnnc1SCC(=O)Nc1cc(C)on1 > 76.9 µM
COc1ccc(CCn2c(C)cc(C(=O)CSc3nnnn3-c3ccccc3)c2C)cc1OC > 76.9 µM
CSc1nc(N2CCOCC2)c2ccccc2n1 > 76.9 µM
O=C(CSc1nc2ccccc2c(=O)n1Cc1ccc(C(=O)NC2CC2)cc1)NCc1ccco1 > 76.9 µM
CS(=O)(=O)CCC(C(=O)N1CCOCC1)N1C(=O)c2cc(Cl)c(Cl)cc2C1=O (configuration not stated) > 76.9 µM
CCn1cc(C(=O)N2CCN(Cc3ccc4c(c3)OCO4)CC2)c2cc(OC)c(OC)cc2c1=O > 76.9 µM
COC(=O)CN1C(=O)C(C)(C)Oc2ccc(C(=O)NC3CC3)cc21 > 76.9 µM
CC(=O)c1c(C)[nH]c(C(=O)OC2CCCCC2=O)c1C (configuration not stated) > 76.9 µM
CCN(CC)CCNC(=O)C(C(=O)c1ccccc1)n1ccccc1=O (configuration not stated) > 76.9 µM
Cn1nnnc1SCC(=O)Nc1nc(-c2ccccc2)c(-c2ccccc2)o1 > 76.9 µM
Cc1ccc2c(c1)N(CCC(=O)NCC1COc3ccccc3O1)C(=O)CO2 (configuration not stated) > 76.9 µM
N#CCCn1c(Cl)nc2ccccc21 > 76.9 µM
O=C(O)C1C2C=CC(C2)C1C(=O)NCCc1ccncc1 (configuration not stated) > 76.9 µM
COCCn1c(=NC(=O)CSC(C)=O)sc2cc(F)ccc21 > 76.9 µM
O=C(NCCN1CCN(c2cccc(Cl)c2)CC1)c1cccn2c(=O)c3ccccc3nc12 > 76.9 µM
COc1ccc(NS(=O)(=O)c2c(C)[nH]c(=O)[nH]c2=O)c(OC)c1 > 76.9 µM
Cc1cccc(CCNS(=O)(=O)c2cnc[nH]2)c1 > 76.9 µM
